# Test results from the supplement of paper PMC8728848.
# Some of the results follow.
# Legend:
# Assay in all cases: glycan array binding signal (z-score within array); higher = stronger binding
# Details in all cases: glycan notation: IUPAC condensed, linker removed
# [1] = molecular target: Fuc(a1-2)[Gal(a1-3)]Gal(b1-3)GlcNAc(b1-6)GalNAc
# Summary of the method: (§1)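 The binding signal is a Z-score computed within each array and averaged over linkers. Arrays of the same protein sequence at different concentrations or buffers were also averaged together. Data originate from 3228 arrays in the Consortium for Functional Glycomics database, kept only where the protein sequence was available.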
# [2] = molecular target: Fuc(a1-2)[Gal(a1-3)]Gal(b1-4)Glc
# Summary of the method: as §1
# [3] = molecular target: Fuc(a1-2)[Gal(a1-3)]Gal(b1-4)GlcNAc
# Summary of the method: as §1
# [4] = molecular target: Fuc(a1-2)[Gal(a1-3)]Gal(b1-4)GlcNAc(b1-2)Man
# Summary of the method: as §1
# [5] = molecular target: Fuc(a1-2)[Gal(a1-3)]Gal(b1-4)GlcNAc(b1-2)Man(a1-3)[Fuc(a1-2)[Gal(a1-3)]Gal(b1-4)GlcNAc(b1-2)Man(a1-6)]Man(b1-4)GlcNAc(b1-4)GlcNAc
# Summary of the method: as §1
# [6] = molecular target: Fuc(a1-2)[Gal(a1-3)]Gal(b1-4)GlcNAc(b1-2)Man(a1-3)[Fuc(a1-2)[Gal(a1-3)]Gal(b1-4)GlcNAc(b1-2)Man(a1-6)]Man(b1-4)GlcNAc(b1-4)[Fuc(a1-6)]GlcNAc
# Summary of the method: as §1
# [7] = molecular target: Fuc(a1-2)[Gal(a1-3)]Gal(b1-4)GlcNAc(b1-3)GalNAc
# Summary of the method: as §1
# [8] = molecular target: Fuc(a1-2)[Gal(a1-3)]Gal(b1-4)GlcNAc(b1-6)GalNAc
# Summary of the method: as §1
# [9] = molecular target: Fuc(a1-2)[Gal(a1-3)]Gal(b1-4)[Fuc(a1-3)]Glc
# Summary of the method: as §1
# [10] = molecular target: Fuc(a1-2)[Gal(a1-3)]Gal(b1-4)[Fuc(a1-3)]GlcNAc
# Summary of the method: as §1
# [11] = molecular target: Fuc(a1-2)[Gal(a1-3)]Gal(b1-4)[Fuc(a1-3)]GlcNAc(b1-3)GalNAc
# Summary of the method: as §1
# [12] = molecular target: Fuc(a1-2)[Gal(a1-4)]Gal(b1-4)GlcNAc
# Summary of the method: as §1
# [13] = molecular target: Fuc(a1-2)[GalNAc(a1-3)]Gal
# Summary of the method: as §1
# [14] = molecular target: Fuc(a1-2)[GalNAc(a1-3)]Gal(b1-3)GalNAc(a1-3)[Fuc(a1-2)]Gal(b1-4)GlcNAc
# Summary of the method: as §1
# [15] = molecular target: Fuc(a1-2)[GalNAc(a1-3)]Gal(b1-3)GalNAc(b1-3)Gal(a1-4)Gal(b1-4)Glc
# Summary of the method: as §1
# [16] = molecular target: Fuc(a1-2)[GalNAc(a1-3)]Gal(b1-3)GlcNAc
# Summary of the method: as §1
# [17] = molecular target: Fuc(a1-2)[GalNAc(a1-3)]Gal(b1-3)GlcNAc(b1-2)Man(a1-3)[Fuc(a1-2)[GalNAc(a1-3)]Gal(b1-3)GlcNAc(b1-2)Man(a1-6)]Man(b1-4)GlcNAc(b1-4)GlcNAc
# Summary of the method: as §1
# [18] = molecular target: Fuc(a1-2)[GalNAc(a1-3)]Gal(b1-3)GlcNAc(b1-2)Man(a1-3)[Fuc(a1-2)[GalNAc(a1-3)]Gal(b1-3)GlcNAc(b1-2)Man(a1-6)]Man(b1-4)GlcNAc(b1-4)[Fuc(a1-6)]GlcNAc
# Summary of the method: as §1
# [19] = molecular target: Fuc(a1-2)[GalNAc(a1-3)]Gal(b1-3)GlcNAc(b1-3)GalNAc
# Summary of the method: as §1
# [20] = molecular target: Fuc(a1-2)[GalNAc(a1-3)]Gal(b1-3)GlcNAc(b1-6)GalNAc
# Summary of the method: as §1
# [21] = molecular target: Fuc(a1-2)[GalNAc(a1-3)]Gal(b1-4)Glc
# Summary of the method: as §1
# [22] = molecular target: Fuc(a1-2)[GalNAc(a1-3)]Gal(b1-4)GlcNAc
# Summary of the method: as §1
# [23] = molecular target: Fuc(a1-2)[GalNAc(a1-3)]Gal(b1-4)GlcNAc(b1-2)Man
# Summary of the method: as §1
# [24] = molecular target: Fuc(a1-2)[GalNAc(a1-3)]Gal(b1-4)GlcNAc(b1-2)Man(a1-3)[Fuc(a1-2)[GalNAc(a1-3)]Gal(b1-4)GlcNAc(b1-2)Man(a1-6)]Man(b1-4)GlcNAc(b1-4)GlcNAc
# Summary of the method: as §1
# [25] = molecular target: Fuc(a1-2)[GalNAc(a1-3)]Gal(b1-4)GlcNAc(b1-2)Man(a1-3)[Fuc(a1-2)[GalNAc(a1-3)]Gal(b1-4)GlcNAc(b1-2)Man(a1-6)]Man(b1-4)GlcNAc(b1-4)[Fuc(a1-6)]GlcNAc
# Summary of the method: as §1
# [26] = molecular target: Fuc(a1-2)[GalNAc(a1-3)]Gal(b1-4)GlcNAc(b1-3)Gal(b1-4)GlcNAc
# Summary of the method: as §1
# [27] = molecular target: Fuc(a1-2)[GalNAc(a1-3)]Gal(b1-4)GlcNAc(b1-3)Gal(b1-4)GlcNAc(b1-3)Gal(b1-4)GlcNAc
# Summary of the method: as §1
# [28] = molecular target: Fuc(a1-2)[GalNAc(a1-3)]Gal(b1-4)GlcNAc(b1-3)GalNAc
# Summary of the method: as §1
# [29] = molecular target: Fuc(a1-2)[GalNAc(a1-3)]Gal(b1-4)GlcNAc(b1-3)[Fuc(a1-2)[GalNAc(a1-3)]Gal(b1-4)GlcNAc(b1-6)]GalNAc
# Summary of the method: as §1
# [30] = molecular target: Fuc(a1-2)[GalNAc(a1-3)]Gal(b1-4)GlcNAc(b1-6)GalNAc
# Summary of the method: as §1
# [31] = molecular target: Fuc(a1-2)[GalNAc(a1-3)]Gal(b1-4)[Fuc(a1-3)]GlcNAc
# Summary of the method: as §1
# [32] = molecular target: Fuc(a1-2)[GalNAc(a1-3)]Gal(b1-4)[Fuc(a1-3)]GlcNAc(b1-3)GalNAc
# Summary of the method: as §1
# [33] = molecular target: Fuc(a1-2)[GalNAc(a1-4)]Gal(b1-4)GlcNAc
# Summary of the method: as §1
# [34] = molecular target: Fuc(a1-2)[GalNAc(b1-3)]Gal
# Summary of the method: as §1
# Fuc(a1-3)GlcNAc = molecular target: Fuc(a1-3)GlcNAc
# Summary of the method: as §1
# [35] = molecular target: Fuc(a1-3)[Gal(b1-4)]Glc6S
# Summary of the method: as §1
# [36] = molecular target: Fuc(a1-3)[Gal(b1-4)]GlcNAc
# Summary of the method: as §1
binder,measurement,setting,value
"Gal 4 (Mus musculus), P56470 (protein) MAYVPAPGYQPTYNPTLPYYQPIPGGLNVGMSVYIQGVASEHMKRFFVNFVVGQDPGSDVAFHFNPRFDGWDKVVFNTLQGGKWGSEERKRSMPFKKGAAFELVFIVLAEHYKVVVNGNPFYEYGHRLPLQMVTHLQVDGDLQLQSINFIGGQPLRPQGPPMMPPYPGPGHCHQQLNSLPTMEGPPTFNPPVPYFGRLQGGLTARRTIIIKGYVPPTGKSFAINFKVGSSGDIALHINPRMGNGTVVRNSLLNGSWGSEEKKITHNPFGPGQFFDLSIRCGLDRFKVYANGQHLFDFAHRLSAFQRVDTLEIQGDVTLSYVQI",glycan array binding signal (z-score),[1],2.83
same,glycan array binding signal (z-score),[2],2.67
same,glycan array binding signal (z-score),[3],1.85
same,glycan array binding signal (z-score),[4],2.53
same,glycan array binding signal (z-score),[5],1.96
same,glycan array binding signal (z-score),[6],0.436
same,glycan array binding signal (z-score),[7],0.435
same,glycan array binding signal (z-score),[8],-0.301
same,glycan array binding signal (z-score),[9],-0.242
same,glycan array binding signal (z-score),[10],-0.266
same,glycan array binding signal (z-score),[11],-0.221
same,glycan array binding signal (z-score),[12],-0.24
same,glycan array binding signal (z-score),[13],-0.239
same,glycan array binding signal (z-score),[14],3.22
same,glycan array binding signal (z-score),[15],-0.256
same,glycan array binding signal (z-score),[16],4.51
same,glycan array binding signal (z-score),[17],6.91
same,glycan array binding signal (z-score),[18],1
same,glycan array binding signal (z-score),[19],1.18
same,glycan array binding signal (z-score),[20],3.37
same,glycan array binding signal (z-score),[21],5.4
same,glycan array binding signal (z-score),[22],3.27
same,glycan array binding signal (z-score),[23],4.19
same,glycan array binding signal (z-score),[24],3.77
same,glycan array binding signal (z-score),[25],0.197
same,glycan array binding signal (z-score),[26],4.64
same,glycan array binding signal (z-score),[27],4.02
same,glycan array binding signal (z-score),[28],0.726
same,glycan array binding signal (z-score),[29],2.04
same,glycan array binding signal (z-score),[30],0.735
same,glycan array binding signal (z-score),[31],-0.226
same,glycan array binding signal (z-score),[32],-0.196
same,glycan array binding signal (z-score),[33],-0.226
same,glycan array binding signal (z-score),[34],-0.221
same,glycan array binding signal (z-score),Fuc(a1-3)GlcNAc,-0.234
same,glycan array binding signal (z-score),[35],-0.18
same,glycan array binding signal (z-score),[36],-0.236
